According to PubChem BioAssay AID624171 (National Center for Advancing Translational Sciences (NCATS), 2012):
Among all 410,000 compounds or so, about 1,200 (0.29%) were called active. Inconclusive means that the source gave no clear call. Such entries were picked first, then a sample of the others. Calls come from the whole dose curve; as a rule, active = well fitted activation curve with a large enough effect; inconclusive = small, poorly fitted or top-dose-only effect; inactive = flat fitted curve, though single readings scatter. Potencies beside an inconclusive call are fits to weak or partial responses and may not hold up.

Assay: qHTS of Nrf2 Activators; note: nearly all actives have a fitted effect of over 65% in size; for activation: % of control where 0% means no effect
Settings: AREc32 ARE-luciferase reporter (MCF7-derived line), luminescence, 24 h; activation: at 46.1 µM (top of the series)
Procedure, shortened: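 Steps: seed AREc32_Fluc cells (1000/well, 5% FBS OPTI-MEM); incubate overnight at 37 deg C; add 23 nL compound; incubate 24 hr; add Steady-Glo; hold 30 min RT; read luminescence.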
Potency is the fitted concentration of half-maximal effect; tags give direction and shape of the fitted curve.

| SMILES | Potency | activation |
| --- | --- | --- |
| COc1ccccc1-c1nnc(NC(=O)c2ccccc2F)o1 | inconclusive: 11.2 µM [activator, partial curve, poor fit] |  |
| NC(=O)/C=C\C(=O)Nc1cccc(C(F)(F)F)c1 | inconclusive: 25.1 µM [activator, single point] |  |
| N#Cc1ccsc1NC(=O)COC(=O)c1cc(Br)ccc1O | inconclusive: 15.8 µM [activator, single point] |  |
| Clc1ccccc1CN1CCN(/N=C/C=C/c2ccco2)CC1 | inconclusive: 22.4 µM [activator, single point] |  |
| CCOc1c(OC(C)=O)ccc(/C=C/c2ccc3cccc(OC(C)=O)c3n2)c1[N+](=O)[O-] | inconclusive: 3.16 µM [activator, single point] |  |
| O=C(Oc1c(CN2CCOCC2)cc(Cl)c2cccnc12)c1cccs1 | inconclusive: 4.47 µM [activator, single point] |  |
| Cc1ccc(C2C(C#N)=C(N)Oc3n[nH]c(-c4ccccc4)c32)o1 (centres undefined) | inconclusive: 35.5 µM [activator, partial curve, poor fit] |  |
| CNc1snc(C)c1C(=O)OCC(=O)c1ccc(Cl)cc1 | inactive |  |
| CCCCc1cc(=O)oc2cc(C)cc(OCC(=O)Nc3ccccn3)c12 | inconclusive: 12.6 µM [activator, single point] |  |
| CC(C)n1c(=NC(=O)c2ccco2)c(C#N)cc2c(=O)n3ccccc3cc21 | inconclusive: 17.8 µM [activator, partial curve, poor fit] |  |
| O=C(/C=C/Nc1cccc([N+](=O)[O-])c1)c1ccco1 | inconclusive: 1.41 µM [activator, full curve, poor fit] |  |
| CSc1cccc(NC(=O)/C=C/c2ccco2)c1 | inconclusive: 10 µM [activator, partial curve, poor fit] |  |
| CC(c1ccccc1)N(CCC(c1ccccc1)C1CCOC(C)(C)C1)C(=O)c1ccco1 (centres undefined) | inactive |  |
| O=C(NCc1ccco1)c1cccn2c(=O)c3c4c(sc3nc12)CCCC4 | inconclusive: 0.501 µM [activator, full curve, poor fit] |  |
| CCCCOc1ccc(S(=O)(=O)NC(=O)C2(C)CCN2C(=O)c2cccc(F)c2)cc1 (centres undefined) |  | inactive: 0.346% [at 9.22 µM] |
| CCC1C(=O)n2nc(-c3ccccc3)cc2N=C1C (centres undefined) | inactive |  |
| CCC/C=C1/CCCOC(C(=O)NCc2ccc(C)o2)(C(F)(F)F)C1 (centres undefined) | inconclusive: 25.1 µM [activator, single point] |  |
| COc1ccc(/C=C2/CCC(CN3CCOCC3)C2=O)cc1 (centres undefined) | inconclusive: 4.47 µM [activator, single point] |  |
| COC(=O)C(O)(CC(=O)c1ccc(OC)cc1)C(F)(F)F (centres undefined) | inactive |  |
| NC(=O)c1ccc2c(=O)n3c(-c4cc(Cl)c(N)c(Cl)c4)csc3nc2c1 | inactive |  |
| C/C(=N\Nc1nc(-c2ccccc2)cs1)c1cccs1 | inactive |  |
| COc1ccc(OC)c2sc(NC(=O)CCS(=O)(=O)c3ccccc3)nc12 | active: 5.01 µM |  |
| CCC(=O)N1c2ccccc2CC1C(=O)NCCc1ccc(OC)cc1OC (centres undefined) | inactive |  |
| CCOc1ccc(C(=O)Nc2ccc(-c3nc4ccccc4[nH]3)cc2)cc1[N+](=O)[O-] | inactive |  |
| C=C(C)C(=O)O[C@H]1C/C(C)=C\C(=O)/C=C(\C)[C@H](O)[C@@H]2OC(=O)C(=C)[C@@H]21 | inconclusive: 3.55 µM [activator, partial curve, poor fit] |  |

| SMILES | Potency | activation |
| --- | --- | --- |
| Cc1cccn2c(=O)c(/C=C(\C#N)c3nc4ccccc4n3C)c(Oc3ccc(Cl)cc3)nc12 | inactive |  |
| COC1=C(C)C(O)=C(C(=O)/C=C/c2ccccc2)C(=O)C1(C)C | inconclusive: 5.62 µM [activator, full curve, poor fit] |  |
| CCNC(=O)c1ccc(-n2c(-c3ccccc3)cc3c2CCCCC3)cc1 | inconclusive: 20 µM [activator, partial curve, poor fit] |  |
| CCCCCc1cc(=O)oc2c(C(CCN(CC)CC)c3cc(OC)c(OC)c(OC)c3)c(OC)cc(OC)c12 (centres undefined) | inactive |  |
| N#Cc1sc2nc(-c3ccccc3)cc(-c3ccco3)c2c1N | inconclusive: 8.91 µM [activator, partial curve] |  |
| O=C(/C=C/Nc1ccccc1C(F)(F)F)c1ccco1 | active: 1.78 µM |  |
| Brc1cc(Br)c2nc(-c3cccs3)ccc2c1 | inconclusive: 3.16 µM [activator, full curve] |  |
| COc1ccc(Cl)cc1NS(=O)(=O)c1cccc2cccnc12 | active: 12.6 µM |  |
| CCOC(=O)C(C)Sc1nc(-c2cccs2)ccc1C#N (centres undefined) | inconclusive: 12.6 µM [activator, single point] |  |
| Cc1nc2sc(-c3ccccc3)nn2c(=O)c1Br | inconclusive: 3.16 µM [activator, partial curve, poor fit] |  |
| CC(=O)N1CCc2cc(S(=O)(=O)C(C)CC(=O)Nc3ccc(OC(F)(F)F)cc3)ccc21 (centres undefined) | inactive |  |
| O=C(N/N=C/C=C\c1ccco1)c1cccnc1 | inconclusive: 12.6 µM [activator, partial curve, poor fit] |  |
| COC(=O)c1ccc(CN(c2ccc(C(=O)O)c(O)c2)S(=O)(=O)c2ccc(Cl)c([N+](=O)[O-])c2)cc1 | inconclusive: 15.8 µM [activator, single point] |  |
| O=C(OCc1ccc([N+](=O)[O-])cc1)c1cc(=O)c2ccccc2o1 | inconclusive: 12.6 µM [activator, partial curve, poor fit] |  |
| CC1=C/C(=N\Nc2ccccc2[N+](=O)[O-])CC(C)(C)C1 | inconclusive: 15.8 µM [activator, partial curve, poor fit] |  |
| Cc1cc2nc(-c3ccco3)c(Cc3cccc(Cl)c3)n2c(C)c1Br | inconclusive: 20 µM [activator, single point] |  |
| CCN(CC)CCN(C(=O)c1ccco1)c1nc2c(C)cccc2s1 | inconclusive: 22.4 µM [activator, single point] |  |
| O=C(O)c1cc(-c2cccc3ccccc23)nc2ccccc12 | inactive |  |
| CC1CCN(CC(O)COC2CCC(C(C)(C)C)CC2)CC1 (centres undefined) | inactive |  |
| Cc1ccc(/C=C/C(=O)OCC(=O)Nc2ccc3[nH]c(=O)[nH]c3c2)o1 | inconclusive: 15.8 µM [activator, single point] |  |
| CCc1cc(=O)oc2cc(OC(C)=O)cc(OC(C)=O)c12 | inactive |  |
| COc1cccc(C2Oc3ccccc3C3CC(c4cccs4)=NN32)c1 (centres undefined) | inconclusive: 15.8 µM [activator, partial curve, poor fit] |  |
| CC(C)Sc1nc2c(cnn2-c2ccccc2)c(=O)[nH]1 | inactive |  |
| COC(=O)c1[nH]c2cccc(OC)c2c1NC(=O)CCN1CCSCC1 | inactive |  |
| Cc1ccc(C(C)C)c(OCCn2cc(C(=O)c3ccco3)c3ccccc32)c1 | inactive |  |

| SMILES | Potency | activation |
| --- | --- | --- |
| CCOC(=O)c1ccc(-c2ccc(/C=N/NC(=O)Cc3nnc(N)s3)o2)cc1 | inactive |  |
| CCc1c(C)sc2c1CCN(Cc1ccc(F)cc1)C2c1ccccc1 (centres undefined) | inactive |  |
| CCCCN(CC)CCCNC(=O)c1cc2c(-c3ccc(OC)c(OC)c3)nn(C)c2s1 | inconclusive: 35.5 µM [activator, single point] |  |
| Cc1cccc2cc(/C=C/C(=O)c3ccco3)c(Cl)nc12 | inconclusive: 12.6 µM [activator, partial curve] |  |
| CC(=O)/C(=N/Nc1ccccc1[N+](=O)[O-])N1CCCc2ccccc21 | inactive |  |
| CCn1ncc(/C=C/C(=O)Nc2c(C)nn(CC)c2C)c1C | inactive |  |
| COC(C/C=C\C(=O)[C@H](C)OCc1ccccc1)OC | inconclusive: 31.6 µM [activator, single point] |  |
| CCCNC(=O)c1cc(C2CCCCN2C(=O)CCCc2ccccc2)on1 (centres undefined) | inactive |  |
| CC1=NN(c2cccc(C(=O)O)c2)C(=O)/C1=C\C=C\c1ccco1 | inconclusive: 22.4 µM [activator, single point] |  |
| CCN(CC)CCNC(=O)c1ccc(NC(=O)c2cccc(S(=O)(=O)N3CCc4ccccc43)c2)cc1 | inconclusive: 35.5 µM [activator, partial curve, poor fit] |  |
| CCN1CCC(N(Cc2cccc(OC)c2)C(=O)Nc2ccc(C)cc2Cl)CC1 | inactive |  |
| Cc1ccc(C(=O)OCC(=O)N(C)c2ccccc2)c(C)c1 | inactive |  |
| COc1ccc(N/C=C2/Sc3ccccc3NC2=O)cc1 | inconclusive: 31.6 µM [activator, single point] |  |
| Cn1nc(C(=O)Nc2ccc(S(=O)(=O)NCc3ccco3)cc2)c2ccccc2c1=O | inconclusive: 15.8 µM [activator, single point] |  |
| COc1ccc2oc3ccccc3c(=O)c2c1 | inconclusive: 10 µM [activator, partial curve] |  |
| COc1ccc(N/C=C2\C(=O)CCc3c2oc2cc(Cl)c(O)c(Cl)c32)cc1 | active: 7.08 µM |  |
| CCOC(=O)c1cnc(-c2ccccc2)nc1-c1ccccc1 | active: 7.94 µM |  |
| O=C(O)c1cc(Cl)nc2ccccc12 | inactive |  |
| Cc1cc(C)n(-c2ccc(C(=O)OCc3nnc(-c4ccccc4)o3)cc2)n1 | inactive |  |
| COc1ccc(OC)c(CC(=O)N2CCc3cc(OC)c(OC)cc3C2)c1 | inactive |  |
| Cc1cccc(CSc2nc(N)c(C#N)c(-c3cccs3)c2C#N)c1 | inactive |  |
| COc1ccc(-n2c(C)cc(C(=O)NC3CCCCC3)c2C)cc1 | active: 17.8 µM |  |
| O=C(CC1=NCCNC(c2ccccc2)C1)c1ccccc1O (centres undefined) | inconclusive: 15.8 µM [activator, partial curve, poor fit] |  |
| COc1cc(/C=C2\C(=O)N(c3ccccc3)N=C2C)ccc1Oc1ccc([N+](=O)[O-])cc1[N+](=O)[O-] | inconclusive: 31.6 µM [activator, single point] |  |
